Assay results reported in PubChem BioAssay AID588855 (National Center for Advancing Translational Sciences (NCATS), 2011).
Where “and” joins values, the source holds several entries; their conditions need not be identical. Identical values can stand only once. Screen size: about 410,000 compounds; about 5,000 (1.2%) were called active. Inconclusive means that the source gave no clear call. Such entries were picked first, then a sample of the others. The call rests on the fitted dose curve; in most records, active means well fitted inhibition curve with a large enough effect; inconclusive means small, poorly fitted or top-dose-only effect; inactive means no such curve, though single readings can be large or run the other way. Potencies beside an inconclusive call are fits to weak or partial responses and may not hold up.
Potency means the concentration at half of the fitted maximal effect; tags describe the fitted curve by direction and shape.

Assay: qHTS for Inhibitors of TGF-b; further: nearly all actives have a fitted effect of over 65% in size
Conditions: HepG2 CAGA-GFP TGF-b/SMAD3 reporter, GFP fluorescence, 18 h, TGF-beta stimulated, 500 pg/mL final; series mostly up to 46.1 µM
Method in brief: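 Inhibition of TGF-beta-driven CAGA-GFP reporter expression in HEPG2 cells is measured by cellular GFP fluorescence after 18 h stimulation with 500 pg/mL recombinant TGF-beta in 1% FBS medium at 37 degrees C.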
With `COc1ccc(N(CC(=O)NCc2cccs2)S(=O)(=O)c2cccc(C)c2)cc1` the Potency was “inactive”. For `CN(Cc1ccccc1)C(=O)Nc1ccc2c(c1)N(C)C(=O)c1ccccc1S2`, the Potency was inconclusive: 20 µM [inhibitor, single point]. For `CCN1C(=O)[C@H]2[C@@H](c3ccc(OC)cc3)N[C@]3(CCCN(Cc4ccc(C(F)(F)F)cc4)C3=O)[C@H]2C1=O`, the Potency was “inactive”. For `Cc1noc(C)c1COC(=O)[C@H](C)NS(=O)(=O)c1ccc(Cl)c(Cl)c1`, the Potency was inconclusive: 10 µM [inhibitor, partial curve, poor fit]. With `CCc1ccc(NC(=O)CCn2nc(-c3ccccc3OC)c3c(C)cc(C)nc32)cc1` the Potency was inconclusive: 35.5 µM [inhibitor, single point]. In the case of `Cc1ccc(-c2nnc(Nc3cccc(O)c3)c3ccccc23)cc1S(=O)(=O)N1CCOCC1`, the Potency is reported as inconclusive: 11.2 µM [inhibitor, single point]. In the case of `CCN(CC)CCOC(=O)c1cccc(Br)c1`, the Potency is reported as inconclusive: 5.62 µM [inhibitor, single point]. With `O=C(c1ccccn1)N1CCN(S(=O)(=O)c2ccccc2)CC1` the Potency was “inactive”. With `O=c1c(-c2ccccc2)cocc1-c1ccccc1` the Potency was “inactive”. In the case of `CCC(C(=O)NCc1ccccc1)n1nc(C)c2sc3ccccc3c2c1=O` (configuration not stated), the Potency is reported as “inactive”. In the case of `CCOC(=O)N1CCN(C(=O)c2cc3c(-c4cccc(OC)c4)nn(C)c3s2)CC1`, the Potency is reported as “inactive”. With `COc1ccc(CCNc2nc(-c3sc(C)nc3C)cs2)cc1OC` the Potency was “inactive”. With `O=C(NCc1ccccc1Cl)c1ccc(CSCc2ccccc2Cl)o1` the Potency was inconclusive: 11.2 µM [inhibitor, partial curve]. With `COc1ccc(CNC(=O)c2cc3cccc(O)c3oc2=N)cc1` the Potency was inconclusive: 7.08 µM [inhibitor, partial curve, poor fit]. In the case of `Cc1cc(C)cc(NCc2cc3c(cc2[N+](=O)[O-])OCO3)c1`, the Potency is reported as inconclusive: 17.8 µM [inhibitor, single point]. In the case of `CC(C)C1C(=O)N(Cc2cn(CCC3OCCO3)nn2)CCS(=O)(=O)N1Cc1ccc(-c2ccccc2Cl)cc1` (configuration not stated), the Potency is reported as inconclusive: 17.8 µM [inhibitor, partial curve, poor fit]. In the case of `CSc1nc2ccc(NC(=O)c3ccc(=O)n(C)n3)cc2s1`, the Potency is reported as inconclusive: 35.5 µM [inhibitor, partial curve, poor fit]. For `CCN1CC2=C(OC(N)=C(C#N)C2c2cccs2)/C(=C\c2cccs2)C1` (configuration not stated), the Potency was inconclusive: 20 µM [inhibitor, partial curve, poor fit]. With `Cc1nn2c(NCCN(C)C)c3c(nc2c1-c1ccccc1)CCC3` the Potency was inconclusive: 5.62 µM [inhibitor, partial curve, poor fit]. With `O=C(CCN1CCOCC1)Nc1ccc2c(c1)N(C(=O)CN1CCOCC1)c1ccccc1CC2` the Potency was inconclusive: 3.55 µM [inhibitor, single point]. With `Cc1ccc(-n2ncc(C(=O)NCc3cccs3)c2C2CCN(C(=O)OC(C)(C)C)CC2)c(C)c1` the Potency was inconclusive: 8.91 µM [inhibitor, partial curve, poor fit]. With `CCN(C(=O)C1CCCN(S(=O)(=O)c2c(C)noc2/C=C/N(C)C)C1)c1cccc(C)c1` (configuration not stated) the Potency was “inactive”. For `COc1ccc(-n2c(SCC(=O)NNC(=O)c3ccc(C)cc3)nnc2-c2ccncc2)cc1`, the Potency was inconclusive: 35.5 µM [inhibitor, single point]. With `C=C(C)C(=O)OCC(O)COc1ccc(C(C)(C)c2ccc(OCC(O)COC(=O)C(=C)C)cc2)cc1` (configuration not stated) the Potency was “inactive”. With `CC(CN(C)Cc1ccccc1)OC(=O)C1COc2ccccc2O1` (configuration not stated) the Potency was inconclusive: 31.6 µM [inhibitor, single point]. For `O=C(NCc1ccco1)c1ccc2c(c1)N(Cc1ccc(Cl)cc1)C(=O)c1ccccc1S2=O` (configuration not stated), the Potency was inconclusive: 6.31 µM [inhibitor, single point]. For `C/C(=N\NC(=O)c1cccnc1)c1ccc(C)c([N+](=O)[O-])c1`, the Potency was “inactive”. With `O=C(CC12CC3CC(CC(C3)C1)C2)NC(=S)NCc1ccco1` the Potency was inconclusive: 17.8 µM [inhibitor, partial curve, poor fit]. In the case of `CCOC(=O)c1ccc(NC(=O)CC2C(=O)OCCN2CC)cc1` (configuration not stated), the Potency is reported as inconclusive: 35.5 µM [inhibitor, single point]. With `COc1cc(C)ccc1NC(=O)Cc1csc(NC(=O)Nc2ccccc2OC)n1` the Potency was inconclusive: 28.2 µM [inhibitor, single point]. In the case of `COc1cccc(-c2cnc3c(NC(C)=O)cc(-c4cccc(C(=O)N(C)C)c4)cn23)c1`, the Potency is reported as “inactive”. For `COC(=O)c1scc(-c2ccc(C)cc2)c1S(=O)(=O)N1CCN(c2cccc(OC)c2)CC1`, the Potency was inconclusive: 35.5 µM [inhibitor, single point]. With `COc1ccc(CC(=O)Nc2cccc(S(=O)(=O)N3CCCCCC3)c2)cc1OC` the Potency was inconclusive: 3.55 µM [inhibitor, partial curve]. In the case of `Fc1ccc(Nc2c3c(nc4ccccc24)CCC3)cc1`, the Potency is reported as inconclusive: 11.2 µM [inhibitor, partial curve] and inconclusive: 20 µM [inhibitor, single point]. For `Nc1c(C(=O)Nc2ccc3c(c2)OCCO3)nnn1Cc1cccc(Br)c1`, the Potency was “inactive”. For `CCc1ccc(CN(Cc2ccco2)c2cnc(S(C)(=O)=O)nc2C(=O)Nc2ccccc2Cl)cc1`, the Potency was active: 7.94 µM. With `COC(=O)C1CCN(C(=O)COC(=O)c2cc(S(=O)(=O)N3CCOCC3)ccc2C)CC1` the Potency was inconclusive: 5.62 µM [inhibitor, single point]. For `COc1ccccc1CNC(=O)c1cc(S(=O)(=O)N2CCN(c3ccccc3)CC2)ccc1Cl`, the Potency was inconclusive: 6.31 µM [inhibitor, single point]. With `CC(=O)OCC(OC(C)=O)C(OC(C)=O)C(OC(C)=O)C(=O)Nc1cccc(C)c1` (configuration not stated) the Potency was “inactive”. In the case of `O=C(NCc1ccccn1)c1c(O)c2cccc3c2n(c1=O)CC3`, the Potency is reported as “inactive”. In the case of `O=C(NC1CCCCC1)C(c1ccncc1)N(Cc1ccc(F)cc1)C(=O)c1ccccn1` (configuration not stated), the Potency is reported as “inactive”. For `Cc1ccc(NC(=S)N2CCN(CCN3C(=O)c4cccc5cccc(c45)C3=O)CC2)cc1`, the Potency was inconclusive: 11.2 µM [inhibitor, single point].
